We go through 86 molecules from PubChem BioAssay AID1346428 (National Center for Advancing Translational Sciences (NCATS), 2018).

SMILES strings stand for the structures. Where “and” joins values, the source holds several entries; their conditions need not be identical. Equal entries are not always repeated. The campaign covered roughly 48,000 compounds. About 1,200 (2.5%) were called active. Not shown: some 2% with an inconclusive outcome.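 How the source made its calls: active means activation of at least 60% and not above a set upper limit (about 1 call in 100 departs from these limits); inconclusive means activation of 40% to 60%, or above that upper limit; inactive means activation under 40%.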 The list shows a part of the results.

Sequence of UniProt O75388 (O75388 whole entry, looked up): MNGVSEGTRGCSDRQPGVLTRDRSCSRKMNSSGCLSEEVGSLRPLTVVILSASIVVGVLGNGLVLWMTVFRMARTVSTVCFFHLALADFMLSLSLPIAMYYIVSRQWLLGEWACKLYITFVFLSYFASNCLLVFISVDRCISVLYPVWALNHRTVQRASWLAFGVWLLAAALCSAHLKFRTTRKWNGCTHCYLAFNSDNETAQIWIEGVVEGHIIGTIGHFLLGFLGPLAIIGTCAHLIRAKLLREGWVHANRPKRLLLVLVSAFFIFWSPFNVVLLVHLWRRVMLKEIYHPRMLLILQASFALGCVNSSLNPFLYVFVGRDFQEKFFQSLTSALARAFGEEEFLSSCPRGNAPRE

In the assay the target is Probable G-protein coupled receptor 32 (Homo sapiens) (UniProt O75388). The assay is described as follows: qHTS for Agonists of Human Resolvin D1 Receptor DRV1. Further: 0% is about no effect. The conditions noted are these: CHO-K1 GPR32 beta-arrestin PathHunter luminescence, 90 min; at 76.9 µM; active compounds read high; zero percent set by DMSO-only wells. In short, it runs like this:
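PathHunter beta-arrestin recruitment in CHO-K1 cells stably expressing ProLink-tagged GPR32. Cells were exposed to compound for 90 min at 37 C, then chemiluminescence was read after 1 h detection at ambient temperature; DMSO served as basal control.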
With `CC(C)CCNC(=O)c1ccc2c(c1)N(C)C(=O)c1ccccc1S2`, the activation is inactive: -12.3%.

For the molecule `CC1CCN(S(=O)(=O)c2cn(CC(=O)Nc3ccc(F)cc3)c(=O)c3ccccc23)CC1`, the activation was inactive: -16.8%.

Turning to `COc1ccc(N2CCN(Cc3nc(-c4ccc(C)cc4)no3)CC2)cc1`, the activation is inactive: 6.05%.

Consider `CCOc1cc2[nH]c(=O)n(CCCCCC(=O)NC(C)CC)c(=O)c2cc1OCC` (stereo unspecified), for which the activation was inactive: -1.31%.

Consider `CC(C)c1nn2c(=O)cc(COC(=O)c3ccccc3Cl)nc2s1`, for which the activation was inactive: -18.2%.

Regarding `O=C(O)CCn1ccc2cc(S(=O)(=O)N3CCCCC3)ccc21`, the activation was inactive: -14.8%.

In the case of `COc1ccc(Cl)cc1NC(=O)CCCS(=O)(=O)c1nc(-c2ccc(OC)c(OC)c2)cc(C(F)(F)F)n1`, the activation is inactive: -37.9%.

On to `CCn1cc2nc(SCc3cccc(F)c3)n(CCc3ccccc3)c(=O)c2n1`, for which the activation is inactive: -11.2%.

Take `CCC(Cc1ccccc1)NC(=O)Cn1ncc2c3ccccc3n(Cc3ccc(F)cc3)c2c1=O` (stereo unspecified): the activation was inactive: -17.1%.

`Cc1nnc(NC(=O)CSCc2cc(=O)c3ccc(C)c(C)c3[nH]2)s1`: the activation was inactive: -12.4%.

For the molecule `Cc1cc(C)n2c(Nc3cccc(C(F)(F)F)c3)c(-c3ccsc3)nc2n1`, the activation was inactive: -25.6%.

On to `COc1ccc(-c2csc(-c3c(N)c(C(=O)c4ccccc4)n4ccccc34)n2)cc1`, for which the activation is inactive: -11%.

In the case of `O=C(NCc1ccccc1Cl)C1CCN(c2ncnc3c2nc2n3CCCCC2)CC1`, the activation was inactive: 4.18%.

On to `Cc1ccc2oc(=O)c3cc(C(=O)Nc4cccc(C#N)c4)sc3c2c1`, for which the activation was inactive: 2.58%.

Take `Cc1ccc(-n2nc3c(N4CCC(C(=O)NCCC(C)C)CC4)nnc(C)c3c2C)cc1`: the activation is inactive: -5.57%.

With `CC(C)c1ccc(S(=O)(=O)c2cnc(SCC(=O)Nc3ccc(F)cc3F)nc2N)cc1`, the activation is inactive: 38%.

Regarding `COc1ccc(NC(=O)c2[nH]nc3c2CSc2ccccc2-3)c(OC)c1`, the activation is inactive: -0.161%.

With `CCOc1ccccc1NC(=O)c1nnn(CC(=O)Nc2ccccc2CC)c1N`, the activation is inactive: -2.62%.

Regarding `Cc1cc(C)cc(-n2ccnc2SCC(=O)Nc2ccc(C)c(Cl)c2)c1`, the activation was inactive: -4.55%.

Regarding `CCC(=O)N1c2ccccc2CC1C(=O)NCCc1ccc(Cl)cc1` (stereo unspecified), the activation was inactive: -2.08%.

In the case of `O=C(Cn1nnnc1-c1ccccc1F)Nc1ccc(F)c(F)c1`, the activation was inactive: 12.3%.

Consider `O=C(CN1CCN(c2ccc(Cl)cc2)CC1)Nc1ccc(F)c(F)c1`, for which the activation was inactive: -6.96%.

With `CCCCOC(=O)c1ccc(NC(=O)/C(C#N)=C/c2ccc(C)o2)cc1`, the activation is inactive: 3.96%.

`C[C@H]1c2cccc(O)c2C(O)=C2C(=O)[C@]3(O)C(O)=C(C(N)=O)C(=O)[C@@H](N(C)C)[C@@H]3[C@@H](O)[C@@H]21`: the activation is inactive: 6.82% and inactive: 11.4%.

With `CCCCNS(=O)(=O)c1ccc2nc(-c3cccnc3)cc(C(=O)NCCCOCC)c2c1`, the activation is inactive: -6.88%.

As to `Cc1ccc(NC(=O)COCc2cc(-c3cccs3)on2)cc1Cl`, the activation was inactive: -17.5%.

With `CCOc1ccccc1CNC(=O)CCn1cccn1`, the activation was inactive: 0.289%.

For `Cc1[nH]c2ccccc2c1C(=O)C(=O)NC1CC(=O)N(c2ccccc2)C1` (stereo unspecified), the activation was inactive: -4.79%.

For `CCN1/C(=C/C(C)=O)Sc2ccc(OC)cc21`, the activation is inactive: 0.49%.

In the case of `CCc1ccccc1N1C(=O)N(C)c2ccccc2S1(=O)=O`, the activation was inactive: 13.8%.

As to `Cc1cccc(-n2c(SCC(=O)Nc3ccccc3C)nc3c(oc4ccccc43)c2=O)c1`, the activation is inactive: -6.34%.

On to `COC(=O)c1ccc(NC(=O)CN(c2cccc(C(F)(F)F)c2)S(C)(=O)=O)cc1`, for which the activation is inactive: 21.5%.

For `COc1cccc(CSc2nc(-c3ccccc3OC)nc3c2Cc2c(CO)cnc(C)c2O3)c1`, the activation was inactive: -1.46%.

For the molecule `CCCN(CCC)CCCNC(=O)C1CCN(S(=O)(=O)c2cccc3nsnc23)CC1`, the activation is inactive: -17.8%.

Regarding `CCOc1ccc(S(=O)(=O)N2CCN(c3ccc(C)cc3C)CC2)c2ccccc12`, the activation was inactive: 20.1%.

Regarding `CCCCCCCCCCCCCCCCO`, the activation is inactive: 3.85%.

`CCN(C(=O)c1ccc2c(=O)n3c(nc2c1)CCCCC3)c1cc(C)ccc1C`: the activation was inactive: -20%.

For `Cc1ccc(C(=O)CC2(O)C(=O)N(Cc3ccccc3)c3ccc(Br)cc32)cc1` (stereo unspecified), the activation was inactive: -18.8%.

For the molecule `CC1CCN(c2ncnc3c2nnn3C)CC1`, the activation is inactive: -2.12%.

`O=C(Cn1c(=O)n(-c2ccc(Cl)cc2)c(=O)c2oc3ccccc3c21)Nc1ccccc1`: the activation is inactive: -9.4%.

Regarding `O=c1[nH]c2cc(Cl)ccc2c(O)c1-c1ccc(Oc2ccccc2)cc1`, the activation is inactive: -7.89%.

For the molecule `CCN(CC)S(=O)(=O)c1nnc(NC(=O)c2ccc(C(C)C)cc2)s1`, the activation was active: 75.4%.

As to `O=C(c1ccco1)N1CCN(c2nc3c(Cl)cccc3s2)CC1`, the activation was inactive: -6.63%.

For `Cn1cnc(S(=O)(=O)N2CCC(C(=O)NCc3ccc(F)cc3)CC2)c1`, the activation is inactive: -12.1%.

As for `COc1ccc(C2=C(C)C(=O)N(Cc3ccc(C(=O)Nc4cc(C)ccc4C)cc3)S2(=O)=O)cc1`, the activation was inactive: -1.99%.

Take `COc1cccc(C(=O)Nc2ccccc2-c2nnc(-c3cc(OC)ccc3Br)o2)c1`: the activation is inactive: -11.2%.

Regarding `Cc1cccc(N2CCN(CCCNC(=O)c3nnc(Cc4c(F)cccc4Cl)o3)CC2C)c1` (stereo unspecified), the activation was inactive: -3.37%.

In the case of `CCCSS/C(CCO)=C(\C)N(C=O)Cc1cnc(C)nc1N`, the activation was inactive: -39.7%.

On to `COc1cc(CC(=O)O)ccc1O`, for which the activation is inactive: 8.61%.

For `Cc1nn2c(=O)cc(COC(=O)c3cccc(NC(=O)c4ccc(C(C)(C)C)cc4)c3)nc2s1`, the activation was inactive: -8.33%.

For the molecule `COc1cccc(C(=O)Nc2ccc3nc(N4CCC(C)CC4)cc(C)c3c2)c1`, the activation is inactive: 23.1%.

With `O=C(COC(=O)c1cccc(NC(=O)c2ccc(Br)cc2)c1)c1ccc(Br)cc1`, the activation is inactive: 5.84%.

On to `CCOC(=O)c1[nH]c2c(c1Cc1ccccc1OC)C(=O)CC(c1ccc(OCC)cc1)C2` (stereo unspecified), for which the activation is inactive: -23.5%.

`COc1ccc(C(=O)CCC(=O)Nc2ccc(OC)c(Cl)c2)cc1`: the activation was inactive: -14.8%.

`CCN(CC)S(=O)(=O)c1ccc2c(c1)N(CC(=O)Nc1ccc(C)cc1C)C(=O)C1CCCN21` (stereo unspecified): the activation was inactive: -28.4%.

Consider `COc1ccccc1N1CCN(c2nc3ccc(C)cc3n3nnnc23)CC1`, for which the activation was inactive: -9.29%.

As to `CC(C)NC(=O)c1ccccc1NC(=O)c1nsc2ccccc12`, the activation was inactive: 5.24%.

On to `Cc1ccc(S(=O)(=O)c2nc(S(C)(=O)=O)sc2NCc2ccccc2)cc1`, for which the activation is inactive: -22.2%.

As for `CCOC(=O)c1c(C)oc2nc(C)nc(NCCc3ccc(SC)cc3)c12`, the activation was inactive: 1.46%.

In the case of `COc1cc(NC(=O)Cn2nc(-c3ccc(C)c(C)c3)ccc2=O)cc(OC)c1`, the activation was inactive: -19.1%.

As to `COc1ccc(C2=CC(c3cccc(C)c3)n3nnnc3N2)cc1` (stereo unspecified), the activation is inactive: -34%.

Regarding `COc1ccc(C)cc1NC(=O)CSc1ccc(-c2ccccn2)nn1`, the activation is inactive: 2.57%.

For `CCOC(=O)c1ccc(OC(=O)CCCCCN=C(N)N)cc1`, the activation is inactive: 20.4%.

Regarding `Cc1cccc(NC(=O)c2oc3ccccc3c2NC(=O)c2cc(=O)c3cc(Cl)ccc3o2)c1`, the activation was inactive: -11.5%.

As for `COc1ccccc1C(=O)Nc1c(C(=O)N(C)c2ccccc2)sc2nc(C)cc(C)c12`, the activation was inactive: -17.1%.

Turning to `Cn1c(=O)c2sccc2n2c(CCC(=O)NCc3ccccc3Cl)nnc12`, the activation was inactive: 11.1%.

On to `COc1ccc(CNC(=O)C2CCN(C(=O)N3CC(C)Oc4ccc(C)cc43)CC2)cc1` (stereo unspecified), for which the activation is inactive: -9.63%.

As for `CN(Cc1ccccc1)C(=O)C1CCN(S(=O)(=O)c2ccc3nc4c(c(C(=O)O)c3c2)CCCC4)CC1`, the activation is inactive: -26.9%.

Regarding `O=C(CCS(=O)(=O)c1cc(Br)cc2c1N(C(=O)C1CC1)CC2)Nc1ccc(C(F)(F)F)cc1`, the activation is inactive: -8.56%.

With `COc1cccc(CNC(=O)CN2C(=O)COc3ccc(S(=O)(=O)Nc4ccccc4)cc32)c1`, the activation is inactive: 2.74%.

In the case of `COc1ccc(-c2nc(Cn3c(SCc4ccccc4F)nc4ccncc43)c(C)o2)cc1OC`, the activation is inactive: -12.2%.

On to `O=C(Nc1ccc(Cl)cc1)c1cc(S(=O)(=O)N2CCc3ccccc32)ccc1F`, for which the activation is inactive: -18.8%.

As to `CCOc1ccc(C(=O)Nc2cc(-c3cn4cccnc4n3)ccc2C)cc1OCC`, the activation is inactive: -4.14%.

For the molecule `COc1ccc(CCNC(=O)c2c(C)oc3ncn(CC(C)C)c(=O)c23)cc1OC`, the activation is inactive: -15.1%.

On to `CCn1cc(C(=O)NCCc2ccc(C)cc2)c(=O)c2cc(S(=O)(=O)N3CCCCC3)ccc21`, for which the activation was inactive: -1.01%.

Take `Cc1cc(C)cc(NC(=O)C2CCC(CNS(=O)(=O)c3ccc4c(c3)C(C)(C)C(=O)N4C)CC2)c1` (stereo unspecified): the activation was inactive: -15.8%.

Turning to `CCOc1ccc(Br)cc1CNCCSc1nnnn1-c1ccccc1`, the activation is inactive: 21.1%.

With `CCc1ccccc1NC(=O)CN1C(=O)c2cccnc2Oc2ccc(Cl)cc21`, the activation is inactive: -24.8%.

`CCc1ccc(NC(=O)c2nn(-c3ccc(C)cc3)c(=O)n(C)c2=O)cc1`: the activation was inactive: -9.99%.

Regarding `COC(=O)NCc1c(C)nn(-c2ccccc2)c1-n1cccc1`, the activation is inactive: 1.1%.

As for `Cc1ccc(C)c(NC(=O)C(=O)NCCc2csc3nc(-c4ccccc4C)nn23)c1`, the activation is inactive: -11.6%.

Take `COc1ccc(CNC(=O)c2cc3c(s2)-c2c(C)cccc2OC3)cc1`: the activation is inactive: 48%.

`CNC(=O)c1sc2ncccc2c1-n1cccc1`: the activation was inactive: -6.16%.

For `CCCS(=O)(=O)N1CC(=O)N(c2ccccc2C)C(C)(C(=O)NC2CCCC2)C1` (stereo unspecified), the activation was inactive: 4.06%.

In the case of `Cn1c(=O)n(-c2cccc(Cl)c2)c(=O)c2sc3ccccc3c21`, the activation is inactive: -0.743%.

`Cc1cc(NC(=O)Cn2nc(C)n3cccc3c2=O)ccc1Br`: the activation was inactive: -21.4%.
